About 1,500 (0.65%) of roughly 230,000 compounds were called active. The inconclusive results got no clear call from the source; some entries with a clear call stand among them for comparison. Calls come from the whole dose curve; as a rule, active = well fitted inhibition curve with a large enough effect; inconclusive = small, poorly fitted or top-dose-only effect; inactive = no such curve, though single readings can be large or run the other way. A potency beside an inconclusive call is a rough fit, not a confirmed value.
molecular target: Lethal(3)malignant brain tumor-like protein 1 (Homo sapiens) (UniProt Q9Y468); experiment: qHTS Assay for the Inhibitors of L3MBTL1; conditions: AlphaScreen L3MBTL1–H3K9me1 peptide binding; activity, negative = inhibition: at 57.1 µM (top of the series); note: nearly all actives have a fitted effect of over 60% in size
Chain of UniProt Q9Y468 (Q9Y468 whole entry, looked up): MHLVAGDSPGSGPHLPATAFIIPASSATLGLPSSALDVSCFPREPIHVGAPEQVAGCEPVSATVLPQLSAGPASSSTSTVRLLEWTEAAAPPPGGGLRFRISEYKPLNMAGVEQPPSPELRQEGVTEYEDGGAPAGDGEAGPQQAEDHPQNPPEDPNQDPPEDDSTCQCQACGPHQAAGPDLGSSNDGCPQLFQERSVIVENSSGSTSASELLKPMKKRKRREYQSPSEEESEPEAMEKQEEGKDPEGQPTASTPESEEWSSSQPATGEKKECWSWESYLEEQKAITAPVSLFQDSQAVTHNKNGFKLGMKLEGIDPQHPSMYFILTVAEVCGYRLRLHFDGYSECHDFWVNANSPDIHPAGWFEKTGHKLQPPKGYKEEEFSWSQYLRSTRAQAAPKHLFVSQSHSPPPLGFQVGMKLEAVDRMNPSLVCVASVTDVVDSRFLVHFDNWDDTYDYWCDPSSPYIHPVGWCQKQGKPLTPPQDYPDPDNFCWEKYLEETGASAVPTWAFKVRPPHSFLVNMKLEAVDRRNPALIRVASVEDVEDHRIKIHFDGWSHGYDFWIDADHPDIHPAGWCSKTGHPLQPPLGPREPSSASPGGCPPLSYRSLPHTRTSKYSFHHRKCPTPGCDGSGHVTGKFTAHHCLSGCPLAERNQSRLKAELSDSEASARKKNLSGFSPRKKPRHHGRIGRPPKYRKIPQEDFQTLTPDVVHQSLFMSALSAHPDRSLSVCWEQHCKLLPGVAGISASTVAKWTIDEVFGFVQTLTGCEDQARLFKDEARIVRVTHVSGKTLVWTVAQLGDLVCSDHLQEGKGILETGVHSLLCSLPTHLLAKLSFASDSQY
How it was run: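 L3MBTL1 50 nM + b-AHA-H3(1-15)K9me1 75 nM, 30 min RT; compound added, 30 min RT; streptavidin donor/Ni-chelate acceptor beads 10 ug/mL each final, 30 min RT dark; AlphaScreen read.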
% is set by controls: 0 for no effect and ±100 for the full control effect; potency is the fitted concentration of half-maximal effect; tags give direction and shape of the fitted curve.

With CCN(CC)C(=O)c1ccc(-c2nnc(OC)c3ccccc23)cc1 as the molecule, how does the Potency read?
The Potency was inconclusive: 5.01 µM [inhibitor, single point].

With Cc1ccc2c(c1)C1CN(C)CCC1N2C(=O)Nc1ccc(Cl)cc1 (stereo unspecified) as the molecule, how does the Potency read?
The Potency was “inactive”.

Cc1cc(O)c(C=Nc2cccc(Cl)c2)c(=O)o1 was tested. Which Potency did it give?
Its Potency is inconclusive: 25.1 µM [inhibitor, single point].

For Cc1ccccc1-c1nnc(SCC(=O)N(CC(C)C)c2c(N)n(CC(C)C)c(=O)[nH]c2=O)n1C, which Potency is on record?
The Potency was “inactive”.

How did the Potency turn out when COc1ccccc1-c1ccc(/C=C2/C=C(C)OC2=O)o1 was run?
Its Potency is “inactive”.

Which Potency does the source give for O=C1CC(c2ccc3c(c2)OCO3)c2cc3c(cc2N1)OCCO3 (stereo unspecified) here?
Its Potency is inconclusive: 1.58 µM [inhibitor, single point].

How did the Potency turn out when Cc1ccc(C2(C)NC(=O)N(CC(=O)Nc3ccccc3N3CCCCC3)C2=O)cc1 (stereo unspecified) was run?
The Potency was “inactive”.

For CC1=NOC(=O)/C1=C\c1ccc(-c2ccc(Br)cc2C(=O)O)o1, which Potency is on record?
Its Potency is active: 22.4 µM.

O=C(/C=C/c1ccc2c(c1)OCCCO2)c1ccc2ccccc2c1O was tested. Which Potency did it give?
Its Potency is inconclusive: 12.6 µM [inhibitor, partial curve].

Which Potency does the source give for CC(=O)NNC(=S)NC(=O)c1ccccc1 here?
Its Potency is “inactive”.

With O=C(NC(=S)N(Cc1ccccc1)c1ccccn1)C1CCCCC1 as the molecule, how does the Potency read?
Its Potency is “inactive”.

O=[N+]([O-])c1cc(Cl)cc(/C=N/NC(=S)Nc2ccc(S(=O)(=O)N3CCOCC3)cc2)c1O was tested. Which Potency did it give?
Its Potency is active: 3.55 µM.

For COc1ccc(C)cc1NC(C)C(=O)NC(=O)NC1CCCCC1 (stereo unspecified), which Potency is on record?
Its Potency is inconclusive: 25.1 µM [inhibitor, single point].

For O=C(N=Nc1c(O)[nH]c2ccccc12)c1cc(NS(=O)(=O)c2cccs2)cc(NS(=O)(=O)c2cccs2)c1, which Potency is on record?
Its Potency is “inactive”.

Which Potency does the source give for O=C(NNS(=O)(=O)c1ccccc1)C1CCN(S(=O)(=O)c2ccc(Cl)cc2)CC1 here?
The Potency was inconclusive: 6.31 µM [inhibitor, single point].

How did the Potency turn out when Fc1ccc(N2CCN(Cc3cn[nH]c3-c3ccccc3)CC2)cc1 was run?
Its Potency is inconclusive: 39.8 µM [inhibitor, partial curve].

How did the Potency turn out when O=C(CSc1ccc(Cl)cc1)N1CCN(c2ccc(Cl)cc2[N+](=O)[O-])CC1 was run?
Its Potency is inconclusive: 35.5 µM [inhibitor, single point].

For CC1CCC2C(=O)N(c3ccc(C(=O)Oc4cccc5cccnc45)cc3)C(=O)C2C1 (stereo unspecified), which Potency is on record?
The Potency was inconclusive: 35.5 µM [inhibitor, single point].

Which Potency does the source give for Cc1cc(C)c2sc(C)[n+](CCCS(=O)(=O)[O-])c2c1 here?
Its Potency is inconclusive: 0.1 µM [inhibitor, full curve, poor fit].

Which Potency does the source give for O=C(CCc1nc2ccccc2s1)NC1CCOC1=O (stereo unspecified) here?
Its Potency is inconclusive: 39.8 µM [inhibitor, partial curve].

For O=C(CNC(=O)c1ccc(Cl)cc1)Nc1ccc(S(=O)(=O)Nc2ncccn2)cc1, which Potency is on record?
Its Potency is “inactive”.

With COC(=O)c1ncccc1SC as the molecule, how does the Potency read?
Its Potency is inconclusive: 0.708 µM [inhibitor, single point].

With Cc1ccc(S(=O)(=O)N2CCOCC2)cc1C(=O)Nc1ccc(N2CCCCCC2)cc1 as the molecule, how does the Potency read?
Its Potency is inconclusive: 39.8 µM [inhibitor, single point].

Cc1nc2ccccc2c(=O)n1NC(=O)c1ccco1 was tested. Which Potency did it give?
The Potency was inconclusive: 8.91 µM [inhibitor, single point].

Cc1cc(NC(=O)COC(=O)C2CCC(=O)N2)c([N+](=O)[O-])cc1C (stereo unspecified) was tested. Which Potency did it give?
Its Potency is “inactive”.

S=C(Nc1ccc(Br)cc1)N1CCn2cccc2C1c1cccnc1 (stereo unspecified) was tested. Which Potency did it give?
The Potency was inconclusive: 39.8 µM [inhibitor, partial curve].

CCc1nn2c(NCCCO)cc(C)nc2c1-c1ccc(F)cc1 was tested. Which activity, negative = inhibition did it give?
Its activity, negative = inhibition is inconclusive: -91.8% [inhibitor].

CCc1ccccc1NC(=O)CNC(=O)CCc1nc2sc3c(c2c(=O)[nH]1)CCCC3 was tested. Which Potency did it give?
The Potency was inconclusive: 31.6 µM [inhibitor, single point].

How did the Potency turn out when COc1ccc(NC(=S)N2CCN(C(c3ccccc3)c3ccccc3)CC2)c(OC)c1 was run?
The Potency was inconclusive: 25.1 µM [inhibitor, single point].

How did the Potency turn out when CCN(CC)c1ccc(NC(=S)NC(=O)c2cccs2)cc1 was run?
The Potency was inconclusive: 31.6 µM [inhibitor, single point].

Which Potency does the source give for COc1ccc2c(c1)-c1c(sn(-c3ccccc3)c1=S)C(C)(C)N2 here?
Its Potency is active: 31.6 µM.

Which Potency does the source give for COc1ccc(N2CCN(CC(=O)Nc3nc4c(s3)CC(C)CC4)CC2)cc1 (stereo unspecified) here?
Its Potency is inconclusive: 17.8 µM [inhibitor, single point].

COc1ccc(NC(=O)CSCc2ccccc2C)cc1 was tested. Which Potency did it give?
Its Potency is inconclusive: 0.794 µM [inhibitor, single point].

With CCOc1cc(CNc2ccc(N3CCOCC3)cc2)cc(Br)c1OCC as the molecule, how does the Potency read?
Its Potency is active: 31.6 µM.

With CCOC(=O)c1oc2ccccc2c1CN1CCN(C(=O)c2ccccc2)CC1 as the molecule, how does the Potency read?
The Potency was inconclusive: 39.8 µM [inhibitor, single point].

For O=C(O)COc1ccc(/C=C/c2nc(-c3ccccc3O)n[nH]2)cc1, which Potency is on record?
Its Potency is inconclusive: 5.01 µM [inhibitor, single point].

Cc1cccc(NCc2ccccc2O)n1 was tested. Which Potency did it give?
Its Potency is “inactive”.

For c1csc(C2=NNC(=NC3CCCCC3)SC2)c1, which Potency is on record?
The Potency was inconclusive: 14.1 µM [inhibitor, partial curve, poor fit].

With CCC(C(=O)O)N1C(=O)/C(=C/C(C)=C/c2ccccc2)SC1=S (stereo unspecified) as the molecule, how does the Potency read?
Its Potency is “inactive”.

With Cc1cc(C(=O)COC(=O)CC2Sc3ccccc3NC2=O)c(C)n1-c1ccc(Br)cc1 (stereo unspecified) as the molecule, how does the Potency read?
Its Potency is inconclusive: 17.8 µM [inhibitor, partial curve].

COc1ccc(OC)c(NC(=O)CSc2nc3nc(C)cc(C)n3n2)c1 was tested. Which Potency did it give?
Its Potency is “inactive”.

COCCNC(=S)N1CCC(c2nc(-c3ccc(N(C)C)cc3)no2)CC1 was tested. Which Potency did it give?
Its Potency is inconclusive: 35.5 µM [inhibitor, single point].

Which Potency does the source give for Cc1ccccc1N1C(=O)CSC1=C(C#N)C#N here?
The Potency was inconclusive: 39.8 µM [inhibitor, single point].

Cc1nnc(N/N=C/c2ccc([N+](=O)[O-])cc2)n1N was tested. Which Potency did it give?
The Potency was inconclusive: 39.8 µM [inhibitor, single point].

Which Potency does the source give for CCCN1C(=O)c2cc(C(=O)NC3CCCCCC3)ccc2C1O (stereo unspecified) here?
Its Potency is “inactive”.

How did the Potency turn out when O=C(NC(C(=O)N1CCCC1C(=O)O)=C1CCCCC1)c1ccccc1 (stereo unspecified) was run?
Its Potency is inconclusive: 1.78 µM [inhibitor, full curve, poor fit].

How did the Potency turn out when O=C(CCN1CCCC1)c1cccs1 was run?
Its Potency is “inactive”.

Cc1ccc(C(=O)CSC2=C(C#N)C(c3ccco3)CC(=O)N2)c(C)c1 (stereo unspecified) was tested. Which Potency did it give?
The Potency was inconclusive: 31.6 µM [inhibitor, single point].

Which Potency does the source give for COc1ccc(NC(=O)COC(=O)c2cc3c(s2)CCC3)cc1 here?
Its Potency is inconclusive: 31.6 µM [inhibitor, single point].

For CC(C)C(=O)Nc1nc2ccc(S(C)(=O)=O)cc2s1, which Potency is on record?
The Potency was “inactive”.

Which Potency does the source give for O=[N+]([O-])c1ccccc1SN(Cc1ccccc1)c1ccccn1 here?
The Potency was inconclusive: 8.91 µM [inhibitor, partial curve].

CCCCC(CC)CO (stereo unspecified) was tested. Which Potency did it give?
The Potency was “inactive”.

How did the Potency turn out when Oc1cc(O)cc(/C=C/c2ccc(O)c(O)c2)c1 was run?
Its Potency is inconclusive: 31.6 µM [inhibitor, partial curve].

CC1CCN(CCCCOc2ccccc2Br)CC1 was tested. Which Potency did it give?
Its Potency is “inactive”.

With O=C1/C(=C\c2ccc(O)c(O)c2)N=C2CCCCCN12 as the molecule, how does the Potency read?
The Potency was inconclusive: 25.1 µM [inhibitor, single point].

With CCN(CC)S(=O)(=O)c1ccc(NC(=O)COC(=O)c2cc(S(=O)(=O)Nc3ccc(OC)cc3)ccc2O)cc1 as the molecule, how does the Potency read?
Its Potency is inconclusive: 39.8 µM [inhibitor, partial curve, poor fit].

With CCCSC1=N/C(=C\c2ccc([N+](=O)[O-])o2)C(=O)S1 as the molecule, how does the Potency read?
The Potency was inconclusive: 3.98 µM [inhibitor, single point].

Which Potency does the source give for O=C(O)CSc1cc(C(=O)c2cc(F)ccc2O)cn2c(=O)c3c(-c4ccccc4)csc3nc12 here?
Its Potency is inconclusive: 25.1 µM [inhibitor, single point].

For COc1ccc(C)cc1-n1c(N)c(C#N)c(C#N)c1-c1ccc(OC)c(OC)c1OC, which Potency is on record?
Its Potency is inconclusive: 25.1 µM [inhibitor, single point].

How did the Potency turn out when CCCN1CCN(C(=O)Cn2ncc3ccccc32)CC1 was run?
The Potency was inconclusive: 31.6 µM [inhibitor, single point].

How did the Potency turn out when COC(=O)C(CCSC)NC(=O)c1cc2c(n(-c3ccc(C)cc3)c1=O)CCCC2=O (stereo unspecified) was run?
The Potency was inconclusive: 28.2 µM [inhibitor, partial curve, poor fit].

How did the Potency turn out when CCCCCCOC(=O)c1ccccc1NC(=O)/C=C/C(=O)O was run?
Its Potency is inconclusive: 3.98 µM [inhibitor, single point].

With COc1ccc(NC(=O)c2ccc3c(=O)n(-c4ccc(OC)cc4OC)c(=S)[nH]c3c2)c(OC)c1 as the molecule, how does the Potency read?
Its Potency is inconclusive: 7.94 µM [inhibitor, partial curve].

With O=S(=O)(NCC(O)COCc1ccco1)c1cccs1 (stereo unspecified) as the molecule, how does the Potency read?
Its Potency is inconclusive: 35.5 µM [inhibitor, single point].

Which Potency does the source give for CCc1cccc(C)c1NC(=O)CN1CCN(S(=O)(=O)c2ccc(C(C)(C)C)cc2)CC1 here?
The Potency was “inactive”.

With Cc1cc(C)c2c(NC(=O)CCl)nn(C)c2n1 as the molecule, how does the Potency read?
The Potency was “inactive”.

For O=C(Cn1cncn1)N/N=C/c1cc([N+](=O)[O-])ccc1O, which Potency is on record?
Its Potency is inconclusive: 22.4 µM [inhibitor, partial curve].

With O=C(N/N=C/c1c[nH]c2ccccc12)c1sc2ccccc2c1Cl as the molecule, how does the Potency read?
Its Potency is inconclusive: 20 µM [inhibitor, partial curve].

For CCc1ccc(S(=O)(=O)Nc2ccncc2)cc1, which Potency is on record?
The Potency was “inactive”.

For O=C1CN(c2cc(Cl)cc(Cl)c2)C(=O)CN1/N=C/c1cccnc1, which Potency is on record?
Its Potency is inconclusive: 6.31 µM [inhibitor, single point].

How did the Potency turn out when O=C(c1ccc(Sc2ccc(F)cc2)c([N+](=O)[O-])c1)N1CCOCC1 was run?
Its Potency is inconclusive: 17.8 µM [inhibitor, partial curve].
